Source: publication PMC12136788
The other results are listed elsewhere or left out.

B1: chr11:87793471:87793472:-_ENSMUSG00000020483_ENSMUST00000020775|mus_mus|mus_mus_mus_hu_False|8_38 (ssRNA)
RNA: GGGAGUUCUACAGUCCGACGAUCUGGACUUGAAAAUAAAAGAAUAAGCUGGAUCCCCCACCCCCCCACAUUGUCAACCCUACACGAGAGUUUUGAAUGAUUCAUAAGAAAAUCAGCAGCUCAAACGAAUGACAACCCCCCACCCAACAGAGGAUUGAGCAUCA
B2: chr4:140556289:140556290:+_ENSMUSG00000036622_ENSMUST00000037055|mus_mus|mus_mus_mus_hu_False|18_38 (ssRNA)
RNA: GGGAGUUCUACAGUCCGACGAUCGAUGGAGCUCACCAGGCCCCCUUUUGCCGUGCAGAACCCUGUGCGGGUCACCACUGCCAGGACGUGCGGUCCCACGUAGGCUCGGGCCUGCAAAAUGAGGGUGCCGCAGAAGAGUGUGUGCAACAGAGGAUUGAGCAUCA
B3: 3626104_3629994_3074_CDS_ENSMUSG00000005907_ENSMUST00000121291|mouse|control|control (ssRNA)
RNA: GGGAGUUCUACAGUCCGACGAUCAAUGCAGGGCUUUGCAGCCUGUGCUCUGAUGAAAACAUCUCGAACAGCUUGCUCACUUGCGCCAAUAUAUUUGCUGAGUAACUCUGGUCCCUUAAUACUAAUAAAAUUCAUUCCACUCUCCAACAGAGGAUUGAGCAUCA
B4: chr7:141441981:141441982:+_ENSG00000106028_ENST00000265304|hu_mus|hu_hu_hu_mus_False|18_48 (ssRNA)
RNA: GGGAGUUCUACAGUCCGACGAUCCUCAUGUCUUACAAACUGACGAAAUACCUGUAACACAGGUCUUCGAAACAUGGCUUCUGUUUUCUUUUCUUACUAAUCUUUAGGCUUUUCCUACCUGACGAUCAGAAAAGAGAAAAAUGACAACAGAGGAUUGAGCAUCA
B5: chr7:141445308:141445309:+_ENSG00000106028_ENST00000265304|hu_hu|hu_hu_hu_mus_False|48_58 (ssRNA)
RNA: GGGAGUUCUACAGUCCGACGAUCUAUGAUUGUUGUUGCUUGCCGCCUCACAUUGUUUUUAUCCAUGUACUCGCCAUAGUCUAUUUUCCCUUCCAAAAAUAUACGAGCCCCCUUUUUCACAUACUGAUAUGCCACAUCUCUGAGCAACAGAGGAUUGAGCAUCA
B6: chr15:98781125:98781126:-_ENSMUSG00000072235_ENSMUST00000097014|mus_mus|motif|central (ssRNA)
RNA: GGGAGUUCUACAGUCCGACGAUCAACAUUCAGGGCCCCAUCAAAUCUGAGGGAAGCAGUGAUGGAAGACACAAUUUGACCGGUCAACCUGUUUAGGUUAGUGUAGGUUGGGCGCUCAAUGUCGAGGUUUCUACGACAGAUAUCCAACAGAGGAUUGAGCAUCA
B7: 79225659_79232078_1400_3pUTR_ENSMUSG00000020716_ENSMUST00000071325|mouse|control|control (ssRNA)
RNA: GGGAGUUCUACAGUCCGACGAUCUCUUAGGCCACCAAUCCAACGCAGAAUUGGUGAUGAUGCGGUGCAGUGAGUUUACCAACACAUAGUGAAAUGUAGAAGGUGAAUUCUGAGCCAGGCAGAUCUUAAAGUGUUGGUUGUUGUCAACAGAGGAUUGAGCAUCA
B8: chr1:244870462:244870463:+_ENSG00000121644_ENST00000302550|hu_hu|motif|central (ssRNA)
RNA: GGGAGUUCUACAGUCCGACGAUCAUAGCAAACAAUCCAAUCUAAAAGUUUAAAUAAAUGUCAAUAAUUUUAAAACGGACGGUAUUUUAUAUGUAUAUAAAGCUGAAGUCACUGCCUUGGAUAGUGUUACACUGCAUCCAAUAUCAACAGAGGAUUGAGCAUCA
B9: chrX:71549400:71549401:+_ENSMUSG00000019087_ENSMUST00000019231|mus_hu|mus_mus_mus_hu_False|88_98 (ssRNA)
RNA: GGGAGUUCUACAGUCCGACGAUCGCAGUAGGAAGAGCAAACCUUUCCAUCCACUGUCGCUGCAGGGUGGGAAAGCAACAACACGGACACCGUCCCACCCUCAACCCCCCCACUGGCACAGGGUCACACAAUCUGGGUCAAAGACAACAGAGGAUUGAGCAUCA
B10: chr1:163117127:163117128:-_ENSG00000143248_ENST00000313961|hu_mus|hu_hu_hu_mus_False|38_58 (ssRNA)
RNA: GGGAGUUCUACAGUCCGACGAUCUGCUACAAAGGAUGUAACUCAACUCACAGGGCAACUUUUGGAAGCCUGACCAGAUUACUACUUGAUUAGCUCCUGAUAAAACUCAGAGCGCACAAAGCGGGGCAGAGAAUCCUUCUCCAUCAACAGAGGAUUGAGCAUCA
B11: chr1:225611761:225611762:-_ENSG00000143815_ENST00000272163|hu_hu|FALSE|FALSE (ssRNA)
RNA: GGGAGUUCUACAGUCCGACGAUCCCAGGCCAUCGACCUCUUACCACUUCACCAUCGGCAAAUUUCCUACUUGGCAUUUUCUAUAAUUAACCUGCGCCAGGUUCCGGCGGUGACACGGACGGCUCCCGGAGAAUAGUCGCACAGCAACAGAGGAUUGAGCAUCA
B12: chr6:18258251:18258252:-_ENSG00000124795_ENST00000397239|hu_mus|FALSE|FALSE (ssRNA)
RNA: GGGAGUUCUACAGUCCGACGAUCCUUCUUCAACGAGGACACUGUGCCCGGCCUGUUGUAAAGCAGUUUGUGUAGAUUUCUAAGUUCAUCUGGUUUUUUCUUACUCAGAAAGAAAUGUAUCCUUUCAAUUUCACAAAGUUUCUGCAACAGAGGAUUGAGCAUCA
B13: chr12:48362563:48362564:+_ENSG00000134291_ENST00000256686|hu_hu|hu_hu_hu_mus_False|28_58 (ssRNA)
RNA: GGGAGUUCUACAGUCCGACGAUCUCCGUCAAGCCCUUCGAUAGACCCUUGCGGGGGAAACUGUAAUCACUUUGUAUUUCUAAAAAAAAGAAACGCCAAAAACUUUCUUUCUUUCUUGGGUGGGGUGAGGCGGGAGGGGGAGGUCAACAGAGGAUUGAGCAUCA
B14: chr3:148802587:148802588:-_ENSG00000071794_ENST00000310053|hu_mus|hu_hu_hu_mus_False|8_98 (ssRNA)
RNA: GGGAGUUCUACAGUCCGACGAUCUCCAACAACUUGUCCUCUCAAACUUCCAAAUAAAACCAAAUCUUGCUCUUCAUCACUCGUUAGGAAGUCAUCUGGAGGAAUAAUGUCUUGGAAUUCAAAAUGUGGAAAGAAAGUUGAGUACAACAGAGGAUUGAGCAUCA
B15: chr14:57521665:57521666:+_ENSMUSG00000021945_ENSMUST00000022511|mus_hu|FALSE|FALSE (ssRNA)
RNA: GGGAGUUCUACAGUCCGACGAUCAACAACAUCAUCAUCAUCUUCCACUGACGAGUUCUGAAACUUAUUAGAUCUAGACACUAAAGGAUUAGCUGGACCACUAAAUGAGUUUCCUACAUUCGUGAGACUAGUUGCCAUGGCCGUCAACAGAGGAUUGAGCAUCA
B16: 64900861_64905178_1367_3pUTR_ENSG00000113595_ENST00000231524|human|control|control (ssRNA)
RNA: GGGAGUUCUACAGUCCGACGAUCCUACAAUCAUCCUGCUGCAAAGUCUUUUCACAGUGGAGGCAGGCUGCAGAAACCUCUGACAACAAAAUAGUCAUAUCUUCUUGUUGCUGCCUGAGCCAAAUCAAUUUUUCACGAACAUGACAACAGAGGAUUGAGCAUCA
B17: chr20:36033742:36033743:+_ENSG00000197122_ENST00000358208|hu_hu|FALSE|FALSE (ssRNA)
RNA: GGGAGUUCUACAGUCCGACGAUCAUCAGACAAUAUGCAAAGUAUUUACAACCAAUUCUGGAUACCCCCCCACCCCCCGCAAGUCUGGGCCUUGGAAUUUCGGAGCCCCAGGCCCGGCCCAGAGCCAGGGGUCCCCCAGGCCUCCAACAGAGGAUUGAGCAUCA
B18: chr12:493273:493274:-_ENSG00000073614_ENST00000399788|hu_mus|hu_hu_hu_mus_False|48_108 (ssRNA)
RNA: GGGAGUUCUACAGUCCGACGAUCUUUUCUCUCUACCACAGGGAUCUUCAAUGUAGAUCCUUGAAGUUCCCAAAAUUUUGCCAGUUGAUCCAAGAAAUCCAAUCUUACUCUAGUCAUUGCCUCAAGUUCAUUCAGGCGCUGGACCAACAGAGGAUUGAGCAUCA
B19: chr2:35971668:35971669:-_ENSMUSG00000026889_ENSMUST00000028251|mus_mus|FALSE|FALSE (ssRNA)
RNA: GGGAGUUCUACAGUCCGACGAUCAAGAAUUGGUACAAAUCAUAGACAUUGUUUAAAUACAAAUAAAUAGUUCUAGAUUCUAAAGAAACAACUCUAGAUAAUCCUAAGUAUUCUCUAGGUUCCUAUUAAAAAUAGAAGGCUAUUCAACAGAGGAUUGAGCAUCA
B20: chr1:172411362:172411363:-_ENSG00000135845_ENST00000344529|hu_mus|FALSE|FALSE (ssRNA)
RNA: GGGAGUUCUACAGUCCGACGAUCCAUGGCGUAGAUAGUGUCUGUACUGACAGACUCCGUCAGGGUCUUUAGCACAGGUGAAAAACCGUAAGUGAAAGUGAUAAAGACCAGAGUACUCUUCAGGUCGGCCCACCGGGUCCGCCCCAACAGAGGAUUGAGCAUCA
B21: chr17:88387627:88387628:+_ENSMUSG00000005370_ENSMUST00000005503|mus_mus|FALSE|FALSE (ssRNA)
RNA: GGGAGUUCUACAGUCCGACGAUCAAAAUCGUCUCCAAAAAAAGUCUUUGUAAUGCAGGGAUGUCGUGACCCUUUAAACUCUAAGAAGGGAUGUGUGUCUUCUCCUGGUAACACAAUUUCUGGGCGACACAUAGGACCAUCUCCCAACAGAGGAUUGAGCAUCA
B22: chrX:71549400:71549401:+_ENSMUSG00000019087_ENSMUST00000019231|mus_hu|mus_mus_mus_hu_False|18_68 (ssRNA)
RNA: GGGAGUUCUACAGUCCGACGAUCGCAGUAGGAAGAGGGAAGCUCUUCAGUCCAGUGCGCUGCAGGGAGAAACAUGAACAACACGGACACCGUCCCACCCUCAACCCCCCCACUGGCAUGUCACACAACAAUCUGGGUCAAAGACAACAGAGGAUUGAGCAUCA

target: T1, UNK ZnF1-3 (human, UniProt Q9C0B0 31-174); experiment: nsRBNS (natural sequence RNA bind-n-seq); RBNS binding buffer (assumed for nsRBNS): 25 mM Tris pH 7.5, 150 mM KCl, 3 mM MgCl2, 0.01% Triton X-100, 500 ug/ml BSA, 20 U/ml SUPERase-In, 4 C; UNK is unkempt and MSI1 is Musashi-1; names of the RNAs are library labels; protein concentration not given here; high values mean tight binding
T1 sequence: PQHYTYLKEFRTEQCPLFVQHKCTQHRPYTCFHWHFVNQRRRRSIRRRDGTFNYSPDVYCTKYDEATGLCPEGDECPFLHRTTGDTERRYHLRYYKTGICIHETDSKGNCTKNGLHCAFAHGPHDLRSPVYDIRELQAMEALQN

Going from B1 to B2, the binding signal falls from 2.87 enrichment R to 1.07 enrichment R.

First: B3
Second: B4
The binding signal of the first is higher: 1.07 enrichment R for the first, 0.733 enrichment R for the second.

Compared with B5, B6 is higher in binding signal: 0.745 enrichment R for the first, 1.55 enrichment R for the second.

Compared with B7, B8 is higher in binding signal: 0.783 enrichment R for the first, 2.46 enrichment R for the second.

First: B9
Second: B10
The binding signal of the first is higher: 1.23 enrichment R for the first, 1.1 enrichment R for the second.

First: B11
Second: B12
The binding signal of the first is higher: 1.06 enrichment R for the first, 0.59 enrichment R for the second.

Going from B13 to B14, the binding signal falls from 1.52 enrichment R to 1.1 enrichment R.

Going from B15 to B16, the binding signal rises from 0.811 enrichment R to 0.983 enrichment R.

First: B17
Second: B18
The binding signal of the first is higher: 2.04 enrichment R for the first, 1.02 enrichment R for the second.

Going from B19 to B20, the binding signal falls from 1.15 enrichment R to 0.792 enrichment R.

First: B21
Second: B22
The binding signal of the first is lower: 0.897 enrichment R for the first, 1.62 enrichment R for the second.
